Assay results taken from patent publication US20100290984A1 (DUKE UNIVERSITY, published 2010).
No end group written: not given here.

Molecular target: T1, MRP3-derived peptide IV (PepIV) (human, also: conjugated to BSA, biotinylated, site not given here)
T1 construct: Same peptide used as BSA conjugate (ELISA) and as biotinylated peptide (SPR)
T1 peptide: KIRSPQSFFDTTPSGRI
Assay: SPR, BIAcore, biotinylated peptide on chip

B1: PepIV-17 scFv (scFv)
scFv: QVQLQQSGPGLVKPSQTLSLTCAISGDSVSTNSAAWNWIRQSPSRGLEWLGRTYYRSKWYNDYAVSVKSRITISPDTSKNHFSLQLNSVTPEDTAVYYCAREGNDAFDIWGQGTMVTVSSGGGGSGGGGSGGGGSQSALTQPPSASGTPGQRVTIS[about 80 residues cut from this listing]FGGGTKLTVLGQPKATPS
notes: not shown: Myc and hexahistidine tags from the pET 22(+) vector
  binding result: binds
